{"source": "ChEMBL document CHEMBL1157539", "about": "“Thousands of chemical starting points for antimalarial lead identification” (Nature, 2010)", "note": "Whole data set: some 13,000 compounds, median “IFI” near 4, cut for the highest 2% near 17. Some of the results follow.", "data": [{"experiment": "GSK_TCMDC: Inhibition Frequency Index (IFI). The number of non-kinase HTS assays where a compound showed > 50 % inhibition, expressed as a percentage of the number of such assays in which the compound was tested (-0 is zero)", "assay_type": "functional", "units": {"IFI": "%"}, "values": [{"molecule": "Nc1nc(N)c2c(ccc3nn(S(=O)(=O)N4CCCC4)cc32)n1", "IFI": 1.47}, {"molecule": "CCOc1cc(C)ccc1N1CCN(CCCCNC(=O)c2ccc(NC(=O)c3ccc(Cl)cc3)cc2)CC1", "IFI": 7.02}, {"molecule": "Cc1c(-c2cccc(NC(=O)C(C)(C)Oc3ccc(Cl)cc3)c2)nc2ncccn12", "IFI": 0.85}, {"molecule": "CCN(CCCN1CCCCC1)c1cc(C)nc(Nc2ccc(Oc3ccccc3)cc2)n1", "IFI": 16.2}, {"molecule": "CCOC(=O)c1c(C)n(-c2ccccc2)c2ccc(OC(=O)COc3ccc(Cl)cc3Cl)cc12", "IFI": 1.69}, {"molecule": "CC(C)Cn1c(Sc2ccc(C#N)c([N+](=O)[O-])c2)nnc1-c1ccccc1Cl", "IFI": 6.43}, {"molecule": "CC(C)C(=O)NC(Nc1ccc([N+](=O)[O-])cc1)C(Cl)(Cl)Cl", "note": "(stereo unspecified)", "IFI": 0.72}, {"molecule": "COc1ccccc1N1CCN(CCCCNC(=O)c2ccc(NC(=O)c3ccc(OC(F)(F)F)cc3)cc2)CC1", "IFI": 4.2}, {"molecule": "CN1CCN(CCc2ccc3nc(-c4csc(Cc5cc(Cl)ccc5OCc5ccccc5)n4)[nH]c3c2)CC1", "IFI": 10.2}, {"molecule": "CC1CN(c2ccc(NC(=O)c3ccc(F)cc3)cc2)CCN1Cc1cccc(F)c1", "note": "(stereo unspecified)", "IFI": 2.86}, {"molecule": "N#Cc1cnc2cc(-c3cnc(CNCCN4CCOCC4)s3)ccc2c1Nc1ccc(Oc2ccccc2)cc1", "IFI": 1.45}, {"molecule": "O=C(Nc1ccc(C(=O)N2CCN(CCN3CCN(c4cccc(C(F)(F)F)c4)CC3)CC2)cc1)c1ccc(C(F)(F)F)cc1", "IFI": 9.4}, {"molecule": "CCOC(=O)c1nc(-c2ccc(-c3ccccc3)cc2)[nH]c1N", "IFI": 2.84}, {"molecule": "Cc1nc(N/C(N)=N/C(=O)NC2CCCCC2)nc2ccccc12", "IFI": 8.28}, {"molecule": "Cc1c(CNCCCNc2nc3cscc3[nH]2)sc(C(F)F)c1Br", "IFI": 3.62}, {"molecule": "CC1(C)N=C(NC(=O)c2cc([N+](=O)[O-])cc([N+](=O)[O-])c2)N=C(N)N1OCc1cccc2ccccc12", "IFI": 1.46}, {"molecule": "Cc1ccc(N2C(N)=NC(N)=NC2(C)C)cc1", "IFI": 2.19}, {"molecule": "Nc1ccc(-c2ccc3ccnc(N)c3c2)cc1", "IFI": 9.09}, {"molecule": "Cc1ccc(NC(=O)Nc2ccc(Cl)cc2)cc1-c1cccc(C(=O)Nc2ccc(F)cc2)c1", "IFI": 15.9}, {"molecule": "COc1ccc2ncc(F)c([C@H](O)CN3CCC(NCc4cc5c(cn4)OCCO5)CC3)c2c1", "IFI": -0}, {"molecule": "COc1cc(NC(=O)Nc2ccc([N+](=O)[O-])cc2OC)c(OC)cc1Cl", "IFI": 1.83}, {"molecule": "CN1CCC(C(=O)Nc2cccc(-c3ccc(-c4nc5ccccc5[nH]4)cc3)c2)CC1", "IFI": 4.31}, {"molecule": "COc1ccc2ncc(F)c(CCN3CC(O)C(CNCc4ccc(F)cc4)C3)c2n1", "note": "(stereo unspecified)", "IFI": 3.88}, {"molecule": "CCN1CCN(CCNc2c3ccccc3nc3ccccc23)CC1", "IFI": 6.02}, {"molecule": "COc1cccc2c(N/N=C/c3ccccc3[N+](=O)[O-])cc(C)nc12", "IFI": 1.47}, {"molecule": "C[C@@H](CC1CCCCC1)OC(=O)N[C@H]1CCN(C#N)C1", "IFI": 2.94}]}]}
